In article PMC11995724, “Antibiotic target discovery by integrated phenotypic and activity-based profiling of electrophilic fragments” (Cell chemical biology, 2025):
Out of some 3,200 compounds screened, about 110 (3.4%) showed an effect of 50% or more. The list shows a part of the results.

tested on: T1, V. cholerae SAD30; design: species or system S. aureus MSSA476 (TSB) or V. cholerae SAD30 (LB); 384-well bacterial growth screen at 25 uM, OD600 relative to DMSO control; conditions: relative growth, OD600, LB; 25 µM; inhibitor
T1 construct: SAD30

In order of rising “% of control remaining” value:
1. O=C(CCl)Cc1cc(Cl)cc(Cl)c1 [10-I15, 1-chloro-3-(3,5-dichlorophenyl)propan-2-one]  20.7286%
2. Cc1cc(C=C(C#N)C(=O)Nc2ccccn2)c(C)n1CC(C)C [9-J21, 2-cyano-3-[2,5-dimethyl-1-(2-methylpropyl)-1H-pyrrol-3-yl]-N-(pyridin-2-yl)prop-2-enamide]  56.6281%
3. CCc1ccc(NC(=O)C(C#N)=Cc2cccn2C)cc1 [8-A20, 2-cyano-N-(4-ethylphenyl)-3-(1-methyl-1H-pyrrol-2-yl)prop-2-enamide]  63.9701%
4. N#CC(=Cc1ccc(O)c(O)c1)C(=O)Nc1cccc(Cl)c1Cl [8-F07, 2-cyano-N-(2,3-dichlorophenyl)-3-(3,4-dihydroxyphenyl)prop-2-enamide]  65.1937%
5. CC(C)NC(=O)C(C#N)=Cc1ccc(Cl)c([N+](=O)[O-])c1 [8-J08, 3-(4-chloro-3-nitrophenyl)-2-cyano-N-(propan-2-yl)prop-2-enamide]  70.6322%
6. CC(Cl)C(=O)N1CCOCC1c1nc(-c2cccs2)no1 (stereo not drawn) [7-B17, 2-chloro-1-{3-[3-(thiophen-2-yl)-1,2,4-oxadiazol-5-yl]morpholin-4-yl}propan-1-one]  72.6912%
7. Cc1cccc(C=C(C#N)C(=O)NC(C)C)c1 [8-J07, 2-cyano-3-(3-methylphenyl)-N-(propan-2-yl)prop-2-enamide]  74.4392%
8. C=CC(=O)NCc1cn(-c2ccccc2)nn1 [2-I13, N-[(1-phenyl-1H-1,2,3-triazol-4-yl)methyl]prop-2-enamide]  76.1459%
9. Cc1cccc(NC(=O)C(C#N)=Cc2cc(C)c(C)cc2C)c1 [8-C18, 2-cyano-N-(3-methylphenyl)-3-(2,4,5-trimethylphenyl)prop-2-enamide]  77.2944%
10. CC(Cl)C(=O)NCC(NS(=O)(=O)N(C)C)C1CCCC1 (stereo not drawn) [7-G16, 2-chloro-N-{2-cyclopentyl-2-[(dimethylsulfamoyl)amino]ethyl}propanamide]  80.2247%
11. CC(Cl)C(=O)NCCC1(CO)CC1 (stereo not drawn) [7-H19, 2-chloro-N-{2-[1-(hydroxymethyl)cyclopropyl]ethyl}propanamide]  82.075%
12. O=C(CCl)NC1CCS(=O)(=O)c2ccc(F)cc21 (stereo not drawn) [7-H06, 2-chloro-N-(6-fluoro-1,1-dioxo-3,4-dihydro-2H-1lambda6-benzothiopyran-4-yl)acetamide]  83.0002%
13. CC(=O)N(C)c1cccc(NC(=O)C(C#N)=Cc2ccco2)c1 [9-L18, 2-cyano-3-(furan-2-yl)-N-[3-(N-methylacetamido)phenyl]prop-2-enamide]  86.8117%
14. Cc1cccc(NC(=O)C(C#N)=Cc2cc(C)n(C3CC3)c2C)c1 [9-D17, 2-cyano-3-(1-cyclopropyl-2,5-dimethyl-1H-pyrrol-3-yl)-N-(3-methylphenyl)prop-2-enamide]  86.8117%
15. C=CC(=O)NCCS(=O)(=O)c1cccs1 [3-J17, N-[2-(thiophene-2-sulfonyl)ethyl]prop-2-enamide]  87.3259%
16. C=CC(=O)NCc1cn(C(F)F)c2ccccc12 [2-F11, N-{[1-(difluoromethyl)-1H-indol-3-yl]methyl}prop-2-enamide]  90.9679%
17. O=C(CCl)NCc1ccccc1CN1CCCC1=O [6-K14, 2-chloro-N-({2-[(2-oxopyrrolidin-1-yl)methyl]phenyl}methyl)acetamide]  91.0039%
18. N#Cc1cccc(C(NC(=O)CCl)C(F)(F)F)c1 (stereo not drawn) [7-N04, 2-chloro-N-[1-(3-cyanophenyl)-2,2,2-trifluoroethyl]acetamide]  91.9874%
19. COc1ccc(C=C(C#N)C(=O)Nc2ccc(C(=O)O)cc2)cc1O [9-F10, 4-[2-cyano-3-(3-hydroxy-4-methoxyphenyl)prop-2-enamido]benzoic acid]  92.5221%
20. COc1ccc([N+](=O)[O-])cc1NC(=O)C(C)Cl (stereo not drawn) [5-N14, 2-chloro-N-(2-methoxy-5-nitrophenyl)propanamide]  92.6342%
21. C=CC(=O)N1CCC(C(=O)N2CCc3ccc([N+](=O)[O-])cc32)CC1 [1-C06, 1-[4-(6-nitro-2,3-dihydro-1H-indole-1-carbonyl)piperidin-1-yl]prop-2-en-1-one]  92.6756%
22. N#CC(=Cc1ccc(OC(F)F)cc1)C(=O)Nc1cccnc1 [9-K04, 2-cyano-3-[4-(difluoromethoxy)phenyl]-N-(pyridin-3-yl)prop-2-enamide]  92.93%
23. CN(Cc1cc(-c2ccccc2)[nH]n1)C(=O)CCl [5-D15, 2-chloro-N-methyl-N-[(5-phenyl-1H-pyrazol-3-yl)methyl]acetamide]  93.643%
24. Cc1cc(C(=O)CCl)c(C)n1C(C)c1ccccc1 (stereo not drawn) [10-P17, 2-chloro-1-[2,5-dimethyl-1-(1-phenylethyl)-1H-pyrrol-3-yl]ethan-1-one]  96.4738%
25. C=CC(=O)NCCc1nccs1 [3-M20, N-[2-(1,3-thiazol-2-yl)ethyl]prop-2-enamide]  96.6771%
26. C=CC(=O)NC1CC(C2CCCCC2)C1 (stereo not drawn) [1-D10, N-(3-cyclohexylcyclobutyl)prop-2-enamide]  96.9087%
27. C=CC(=O)N1CCC(C(=O)N[C@H](C)c2ccc3c(c2)CCCC3)CC1 [3-P12, 1-(prop-2-enoyl)-N-[(1R)-1-(5,6,7,8-tetrahydronaphthalen-2-yl)ethyl]piperidine-4-carboxamide]  97.2064%
28. CC(Cl)C(=O)Nc1ccc(-c2c[nH]cn2)cc1 (stereo not drawn) [5-F08, 2-chloro-N-[4-(1H-imidazol-4-yl)phenyl]propanamide]  97.5097%
29. Cn1ccnc1Sc1ccc(C=C(C#N)C(N)=O)cc1[N+](=O)[O-] [8-D03, 2-cyano-3-{4-[(1-methyl-1H-imidazol-2-yl)sulfanyl]-3-nitrophenyl}prop-2-enamide]  97.5527%
30. Cc1cc(C(=O)CCl)c(C)n1-c1ccc(OC(F)(F)F)cc1 [10-G04, 2-chloro-1-{2,5-dimethyl-1-[4-(trifluoromethoxy)phenyl]-1H-pyrrol-3-yl}ethan-1-one]  98.344%
31. CC(=O)Nc1ccc(NC(=O)C(C)Cl)cc1 (stereo not drawn) [5-N06, 2-chloro-N-(4-acetamidophenyl)propanamide]  100.704%
32. O=C(CCl)NC(C1CC1)C1CC1 [6-C22, 2-chloro-N-(dicyclopropylmethyl)acetamide]  100.711%
33. COc1ccccc1CNC(=O)C(C)Cl (stereo not drawn) [5-M21, 2-chloro-N-[(2-methoxyphenyl)methyl]propanamide]  101.376%
34. C=CC(=O)NCc1ccc(C(=O)N2CCCC23CCOC3=O)cc1 (stereo not drawn) [3-I06, N-[(4-{6-oxo-7-oxa-1-azaspiro[4.4]nonane-1-carbonyl}phenyl)methyl]prop-2-enamide]  101.441%
35. COCc1ccc(CNC(=O)CCl)cc1 [6-O22, 2-chloro-N-{[4-(methoxymethyl)phenyl]methyl}acetamide]  102.683%
36. O=C(CCl)Nc1cc(S(=O)(=O)N2CCOCC2)ccc1Cl [6-H03, 2-chloro-N-[2-chloro-5-(morpholine-4-sulfonyl)phenyl]acetamide]  102.986%
37. C=CC(=O)N[C@H]1CCCC[C@H]1n1cc(C(C)(C)O)nn1 [1-P07, N-[(1S,2R)-2-[4-(2-hydroxypropan-2-yl)-1H-1,2,3-triazol-1-yl]cyclohexyl]prop-2-enamide]  103.139%
38. C=CC(=O)NCc1ncc(C)o1 [2-P21, N-[(5-methyl-1,3-oxazol-2-yl)methyl]prop-2-enamide]  106.253%
39. CCc1ccc(C(NC(=O)CCl)c2cccc(F)c2)cc1 (stereo not drawn) [4-C20, 2-chloro-N-[(4-ethylphenyl)(3-fluorophenyl)methyl]acetamide]  106.448%
40. O=C(CCl)Nc1ccc(S(=O)(=O)N2CCCC2)cc1 [4-F08, 2-chloro-N-[4-(pyrrolidine-1-sulfonyl)phenyl]acetamide]  107.483%
41. C=CC(=O)N1CCC(C(=O)Nc2ccn(Cc3ccccn3)n2)CC1 [3-B07, 1-(prop-2-enoyl)-N-{1-[(pyridin-2-yl)methyl]-1H-pyrazol-3-yl}piperidine-4-carboxamide]  107.969%
42. Cl.O=C(CCl)Nc1ncc[nH]1 [6-B03, 2-chloro-N-(1H-imidazol-2-yl)acetamide hydrochloride]  109.053%
43. CN(c1ccccc1)S(=O)(=O)c1cccc(NC(=O)CCl)c1 [4-H04, 2-chloro-N-{3-[methyl(phenyl)sulfamoyl]phenyl}acetamide]  111.106%
44. CN(C)S(=O)(=O)c1ccccc1CNC(=O)CCl [4-J22, 2-chloro-N-{[2-(dimethylsulfamoyl)phenyl]methyl}acetamide]  115.247%
45. O=C(CCl)N(Cc1cc(F)ccc1F)CC1CCOCC1 [5-P03, 2-chloro-N-[(2,5-difluorophenyl)methyl]-N-[(oxan-4-yl)methyl]acetamide]  118.693%
